The other results are listed elsewhere or left out. These are noisy estimates, calculated here from bound and input reads.
Each sequence was assayed against T1, Pho4 (S. cerevisiae) (UniProt P07270) (assay: relative binding free energy (BET-seq); higher = weaker binding). Conditions: reference: library average.
T1 sequence: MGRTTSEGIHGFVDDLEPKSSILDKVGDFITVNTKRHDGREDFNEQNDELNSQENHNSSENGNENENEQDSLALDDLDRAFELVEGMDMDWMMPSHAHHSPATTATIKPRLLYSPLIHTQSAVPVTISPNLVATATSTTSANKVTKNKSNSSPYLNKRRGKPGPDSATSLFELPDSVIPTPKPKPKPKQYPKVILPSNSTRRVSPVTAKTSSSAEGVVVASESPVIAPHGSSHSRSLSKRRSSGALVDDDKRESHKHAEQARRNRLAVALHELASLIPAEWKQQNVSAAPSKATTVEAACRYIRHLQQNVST
With CGATTCACGTGGTGCG the “relative binding free energy” value was 0.13 kcal/mol.
In the case of ATAAGCACGTGAGGCT, the “relative binding free energy” value is reported as 0.2 kcal/mol.
In the case of GTTAACACGTGAGTTA, the “relative binding free energy” value is reported as 0.18 kcal/mol.
With CTGTGCACGTGATGTG the “relative binding free energy” value was 0.17 kcal/mol.
For GGCCCCACGTGGGTGG, the “relative binding free energy” value was -0.3 kcal/mol.
GTGTGCACGTGCTAGG was tested, and the “relative binding free energy” value was -0.08 kcal/mol.
With TTCGGCACGTGGAGTA the “relative binding free energy” value was -0.17 kcal/mol.
With TTGAACACGTGCTTGG the “relative binding free energy” value was 0.02 kcal/mol.
For CGGGACACGTGAGGTT, the “relative binding free energy” value was 0.25 kcal/mol.
For TTGTTCACGTGATCGG, the “relative binding free energy” value was 0.09 kcal/mol.
CTGAGCACGTGTTTTG was tested, and the “relative binding free energy” value was -0.07 kcal/mol.
For TTTTGCACGTGGGACA, the “relative binding free energy” value was -0.11 kcal/mol.
GGTCTCACGTGTCTGG was tested, and the “relative binding free energy” value was 0.24 kcal/mol.
TGGCTCACGTGGGGCG was tested, and the “relative binding free energy” value was 0.11 kcal/mol.
For GTATTCACGTGATTAA, the “relative binding free energy” value was 0.3 kcal/mol.
CACGGCACGTGATGGG was tested, and the “relative binding free energy” value was 0.03 kcal/mol.
In the case of TCCGGCACGTGTGTGT, the “relative binding free energy” value is reported as 0 kcal/mol.
TAATTCACGTGGCTGA was tested, and the “relative binding free energy” value was 0.4 kcal/mol.
CATGGCACGTGGGGCA was tested, and the “relative binding free energy” value was -0.14 kcal/mol.
For GGGGTCACGTGCGCTT, the “relative binding free energy” value was 0.05 kcal/mol.
For CTGAGCACGTGGAGAG, the “relative binding free energy” value was 0 kcal/mol.
In the case of GTAGGCACGTGGATGG, the “relative binding free energy” value is reported as -0.07 kcal/mol.
In the case of CAGGGCACGTGTGTGG, the “relative binding free energy” value is reported as -0.06 kcal/mol.
For AATTACACGTGCGTAT, the “relative binding free energy” value was 0.15 kcal/mol.
For TAATTCACGTGAGTAG, the “relative binding free energy” value was 0.49 kcal/mol.
TTCGTCACGTGTCAAG was tested, and the “relative binding free energy” value was 0.18 kcal/mol.
For GGGTGCACGTGAGTGC, the “relative binding free energy” value was 0.29 kcal/mol.
With AGTTTCACGTGAGGAA the “relative binding free energy” value was 0.48 kcal/mol.
With GTTATCACGTGGGAGA the “relative binding free energy” value was 0.13 kcal/mol.
With TTTATCACGTGTCAGT the “relative binding free energy” value was 0.3 kcal/mol.
For GTAGTCACGTGCATGG, the “relative binding free energy” value was 0.21 kcal/mol.
In the case of TAGGTCACGTGGGTTC, the “relative binding free energy” value is reported as 0.05 kcal/mol.
CGAGGCACGTGGATTG was tested, and the “relative binding free energy” value was -0.09 kcal/mol.
In the case of TGGAGCACGTGTGGAA, the “relative binding free energy” value is reported as 0.1 kcal/mol.
With ATGCGCACGTGTTTGG the “relative binding free energy” value was -0.09 kcal/mol.
For TGGTGCACGTGCAATA, the “relative binding free energy” value was -0.05 kcal/mol.
GGTGCCACGTGTAGTG was tested, and the “relative binding free energy” value was 0.05 kcal/mol.
GTGTGCACGTGGACTG was tested, and the “relative binding free energy” value was 0.08 kcal/mol.
With TAGTTCACGTGTAAAG the “relative binding free energy” value was 0.26 kcal/mol.
TGAGTCACGTGATAGT was tested, and the “relative binding free energy” value was 0.16 kcal/mol.
For AATGGCACGTGGGTGG, the “relative binding free energy” value was -0.23 kcal/mol.
In the case of GTGGTCACGTGGCGTG, the “relative binding free energy” value is reported as -0.01 kcal/mol.
TGATTCACGTGTATTA was tested, and the “relative binding free energy” value was 0.32 kcal/mol.
In the case of TGTATCACGTGAAGGA, the “relative binding free energy” value is reported as 0.21 kcal/mol.
For AAGGACACGTGTATAG, the “relative binding free energy” value was 0.08 kcal/mol.
In the case of CTGGGCACGTGAGTGG, the “relative binding free energy” value is reported as 0.12 kcal/mol.
In the case of TAATTCACGTGAAGGG, the “relative binding free energy” value is reported as 0.48 kcal/mol.
GGGTACACGTGTGGGA was tested, and the “relative binding free energy” value was 0.17 kcal/mol.
GTTCACACGTGGCGTT was tested, and the “relative binding free energy” value was 0.11 kcal/mol.
In the case of AATATCACGTGATGTT, the “relative binding free energy” value is reported as 0.32 kcal/mol.
In the case of TATCACACGTGGTGTT, the “relative binding free energy” value is reported as 0 kcal/mol.
TGTGGCACGTGTCAAG was tested, and the “relative binding free energy” value was -0.21 kcal/mol.
In the case of TAGGCCACGTGTTCGT, the “relative binding free energy” value is reported as -0.04 kcal/mol.
For GGGGACACGTGGAATA, the “relative binding free energy” value was 0.23 kcal/mol.
For GGGAACACGTGGGTGG, the “relative binding free energy” value was -0.04 kcal/mol.
With TAGTGCACGTGGGTAC the “relative binding free energy” value was -0.11 kcal/mol.
In the case of TCTATCACGTGAATGT, the “relative binding free energy” value is reported as 0.3 kcal/mol.
AGAGGCACGTGGTGAC was tested, and the “relative binding free energy” value was -0.19 kcal/mol.
In the case of TTATGCACGTGATTTG, the “relative binding free energy” value is reported as 0.1 kcal/mol.
TTTTCCACGTGGTATA was tested, and the “relative binding free energy” value was -0.04 kcal/mol.
For TTGCTCACGTGCAGGG, the “relative binding free energy” value was 0.23 kcal/mol.
In the case of TTGAACACGTGTAGTT, the “relative binding free energy” value is reported as -0.04 kcal/mol.
In the case of ATTATCACGTGTAGCG, the “relative binding free energy” value is reported as 0.11 kcal/mol.
GATGTCACGTGGATGG was tested, and the “relative binding free energy” value was 0.15 kcal/mol.
TGTGGCACGTGGGTTT was tested, and the “relative binding free energy” value was -0.21 kcal/mol.
For ATTCACACGTGGTGGG, the “relative binding free energy” value was -0.07 kcal/mol.
AAAGTCACGTGGTCGT was tested, and the “relative binding free energy” value was 0.06 kcal/mol.
GATTACACGTGAGAGT was tested, and the “relative binding free energy” value was 0.29 kcal/mol.
In the case of TACTTCACGTGGTGGA, the “relative binding free energy” value is reported as 0.13 kcal/mol.
With AATTGCACGTGGAGGT the “relative binding free energy” value was 0.03 kcal/mol.
With TTTGACACGTGCCGGT the “relative binding free energy” value was -0.12 kcal/mol.
In the case of TGGGTCACGTGGGTAA, the “relative binding free energy” value is reported as 0 kcal/mol.
GTACACACGTGGAGGT was tested, and the “relative binding free energy” value was 0 kcal/mol.
